T1: UNK ZnF1-6 (called full-length) (human, UniProt Q9C0B0 30-357)
T1 sequence: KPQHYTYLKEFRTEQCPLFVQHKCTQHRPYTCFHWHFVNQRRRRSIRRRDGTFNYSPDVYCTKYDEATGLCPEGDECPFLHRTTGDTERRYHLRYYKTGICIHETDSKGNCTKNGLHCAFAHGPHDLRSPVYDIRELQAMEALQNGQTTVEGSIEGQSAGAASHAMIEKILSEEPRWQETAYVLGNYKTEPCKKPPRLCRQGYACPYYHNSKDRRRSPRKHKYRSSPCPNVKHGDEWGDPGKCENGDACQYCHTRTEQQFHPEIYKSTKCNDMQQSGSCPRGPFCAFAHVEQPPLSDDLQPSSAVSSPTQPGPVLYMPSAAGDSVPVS

B1: ENSG00000107863:be:win_2051|CDS|ENSG00000107863|bound_else_gene|NA|bound_elsewhere_windowed (ssRNA)
RNA: GGGAGUUCUACAGUCCGACGAUCCUUUAUCUGGAGCCUCUGCCAAGCCUGCCCCUCAGUCGAGUGAAAACGCUGGUACUUCAGAUUUAGAACUACCUGUCAGUCAAAGGAAUCAAGAUUUAAGUUUACAAGAGGCUGAAACUGCAACAGAGGAUUGAGCAUCA
B2: chr19:48485270:48485772:-|three_prime_utr|ENSG00000142235|control|control|control (ssRNA)
RNA: GGGAGUUCUACAGUCCGACGAUCCCCCUGACCCCCCUGACCCCCUCGGAGCCAAAUGAGGCAGGAAUCCCCCCGCCCCUCCAUAGAGAGCCGCCUUUCUCGGAACUGAACUGAACUCUUUUGGGCCUGGAGCCCCUCGACACACAACAGAGGAUUGAGCAUCA
B3: chr2:216675642:216675774:-|3pUTR|ENSG00000115461|msi1|total|mutant (ssRNA)
RNA: GGGAGUUCUACAGUCCGACGAUCUUUUUCUUUGUUUUUUUCUUUCUUCCUUUCUUUCAAAGGUUUGCAUUAACUUUUCAAAGCCGUUCCUACCGGGGCAUUGAGGAGCUUCCUCAUUCUGGGAAAACUGAGAAAACCCAUAUUCAACAGAGGAUUGAGCAUCA
B4: chr11:113738268:113738383:-|CDS|ENSG00000086827|unk|total|mutant (ssRNA)
RNA: GGGAGUUCUACAGUCCGACGAUCUGCUUUUUGGCCCAAAUGCGGGCACAGAAAGGUGAACUUCUGGAAAGAUUAUCAAGUGCCCGGAACUUUUCAAAUAUGGACGAUGAAGAGAAUUAUUCUGCAGCAAGUAAAGCAGUCCGGCAACAGAGGAUUGAGCAUCA
B5: ENSG00000124766:be:win_3751|3pUTR|ENSG00000124766|bound_else_gene|NA|bound_elsewhere_windowed (ssRNA)
RNA: GGGAGUUCUACAGUCCGACGAUCUUGUACAUUUAAGUCUGUAUUAUAAUAAGCAAAAAGAUUGUGUGUAUGUAUGUUUAAUAUAACAUGACAGGCACUAGGACGUCUGCCUUUUUAAGGCAGUUCCGUUAAGGGUUUUUGUUUCAACAGAGGAUUGAGCAUCA
B6: chr12:47968718:47968836:+|3pUTR|ENSG00000134291|unk|FALSE|unique (ssRNA)
RNA: GGGAGUUCUACAGUCCGACGAUCCUGGGAGCUUUUUGAAAAGAAAGAAAAAAGUGUGUUGGCUUUUUUUUUUUUUAGAAAGUUAGAAUUGUUUUUACCAAGAGUCUAUGUGGGGCUUGAUUCACCCUUCAUCCAUUGGCUGGACAACAGAGGAUUGAGCAUCA
B7: ENSG00000136451:be:win_2251|3pUTR|ENSG00000136451|bound_else_gene|NA|bound_elsewhere_windowed (ssRNA)
RNA: GGGAGUUCUACAGUCCGACGAUCGAUGGAAUAUAGCAUUGUAGUUGACUUUUUAAAAAAAAAAAAAAUUUAAAAAAAAUCUACAAAUUGUGUUUUGCUAAGAAAAGCCUCAACUGACAGAGGAGAAGUCAAGUGUGUGGACAGCAACAGAGGAUUGAGCAUCA
B8: ENSG00000124766:be:win_2001|3pUTR|ENSG00000124766|bound_else_gene|NA|bound_elsewhere_windowed (ssRNA)
RNA: GGGAGUUCUACAGUCCGACGAUCAUUUGGCCGAUGGCAGAUGUUUUGGGGGAACGCCGGGACUGAGAGACUCCACGCAGGCGAAUUCCCGUUUGGGGCUUUUUUUUCCUCCCUCUUUUCCCCUUGCCCCCUCUGCAGCCGGAGCAACAGAGGAUUGAGCAUCA
B9: chr2:240466480:240466663:+|3pUTR|ENSG00000063660|msi1|FALSE|unique (ssRNA)
RNA: GGGAGUUCUACAGUCCGACGAUCGGAGCCAGUGUGCCCAAAAGCCAUGUAUUUCAGGGACCUCAGGGGCACCUCCGGCUGCCUAGCCCUCCCCCCAGCUCCCUGCACCGCCGCAGAAGCAGCCCCUCGAGGCCUACAGAGGAGCAACAGAGGAUUGAGCAUCA
B10: chr1:37709127:37709197:+|3pUTR|ENSG00000134690|msi1_unk|total|mutant (ssRNA)
RNA: GGGAGUUCUACAGUCCGACGAUCUGAAGACCAAAUACUGGUUUGGAGACAACUUCCAUGUCUUGCUCUUCUACCUCCCCCGUCCGUGGAAAUUUGGAUAAGGGAACUGCCGGGCCCAGAUUCUGGAGGUUUUAUGUCAUUGGCCAACAGAGGAUUGAGCAUCA
B11: chr13:79312715:79312816:-|3pUTR|ENSG00000139746|unk|FALSE|unique (ssRNA)
RNA: GGGAGUUCUACAGUCCGACGAUCCCUUGUGAUUUAUUAUAAUGUAGCAGCAUACUUAUAAAAGUGGUCUGUGCUGAGUCAGAUAGAGAGCCCAGCCCAUUAGAAACACAUCAUAAUUUAAGAAUAUGAUGCAGAAUGCCCUUACAACAGAGGAUUGAGCAUCA
B12: chr10:128104542:128104643:-|CDS|ENSG00000148773|msi1|FALSE|unique (ssRNA)
RNA: GGGAGUUCUACAGUCCGACGAUCAAGUGAUGAGAAAAAUAUCAACACAUUUGUGGAAACUCCAGUGCAGAAACUGGACCUGCUAGGAAAUUUACCUGGCAGCAAGAGACAGCCACAGACUCCUAAGGAAAAGGCUGAGGCUCUCAACAGAGGAUUGAGCAUCA
B13: chr17:58308540:58309380:-|CDS|ENSG00000005379|control|control|control (ssRNA)
RNA: GGGAGUUCUACAGUCCGACGAUCCAUCAGCAUCACCAGCUCCUGCUACCCUGGAGAUGGGGAGGCCUGGGGCACAGCAACUGUAGGAAGGCCCAGGGGGCCUCCGAAGGCCAAUUCAGGCCCCAAGCCCUACCCACGCCUCCCCAACAGAGGAUUGAGCAUCA
B14: chr15:64682558:64682659:+|3pUTR|ENSG00000180357|unk|total|mutant (ssRNA)
RNA: GGGAGUUCUACAGUCCGACGAUCCACACUGGUCUUGCCUCUUCUUUUCCACUGCUUGGCUCUUAAGCCUCAGGCAGAUAAACCCGUAUUCCCCCCAGCUUGGGGAACCUUGGAGUCUGCCAGGUCACCUCCGGGCAAGGCCCACAACAGAGGAUUGAGCAUCA

This is one part of the list.

The experiment addresses T1, UNK ZnF1-6 (called full-length). Put plainly: nsRBNS (natural sequence RNA bind-n-seq); RBNS binding buffer (assumed for nsRBNS): 25 mM Tris pH 7.5, 150 mM KCl, 3 mM MgCl2, 0.01% Triton X-100, 500 ug/ml BSA, 20 U/ml SUPERase-In, 4 C; UNK is unkempt and MSI1 is Musashi-1; names of the RNAs are library labels; protein concentration not given here; high values mean tight binding.
As for B1, the binding signal turned out to be 0.665 enrichment R.
With B2, the binding signal was 1.6 enrichment R.
In turn, B3 returned a binding signal of 0.435 enrichment R.
B4 yielded a binding signal of 0.391 enrichment R.
Then B5, with 0.359 enrichment R.
Then B6, with 0.985 enrichment R; and B7, with 0.963 enrichment R.
Take B8: the binding signal was determined as 1.02 enrichment R.
Then B9, with 0.727 enrichment R.
For the molecule B10, the binding signal was 0.675 enrichment R.
In the case of B11, the binding signal came out at 0.774 enrichment R.
Then B12, with 0.671 enrichment R; and B13, with 0.509 enrichment R.
The molecule B14 showed a binding signal of 0.509 enrichment R.

These data come from paper PMC12136788.
